“And” between values parts separate entries of the source, which are not always exact repeats. Equal values may be shown once.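 Following 48 hours of exposure in 96-well plates, responses at five concentrations were used to interpolate endpoints linearly. The concentration for 50% growth inhibition is given as GI50. TGI: concentration producing complete growth inhibition.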
Tested on: NCI-H322M lung
Test: DTP human tumour cell line panel, 48 h

SMILES	TGI	GI50
O=C(N=S(NC(=O)c1ccccc1)C(Cl)(Cl)Cl)c1ccccc1 (centres undefined)	> 100 µM	–
CN(C)c1ccc(/C=C\c2cccc[n+]2C)cc1	> 100 µM	32.6 µM
CC(=O)OC1C(O)COC(O[C@H]2CC[C@]34C[C@]35CC[C@]3(C)C([C@@]6(C)CC[C@@H](C(C)(C)O)O6)[C@@H](O)C[C@@]3(C)C5C[C@H](OC3OCC(O)C(O)C3O)[C@H]4C2(C)C)C1OC1OCC(O)C(O)C1O (some centres undefined)	> 100 µM	–
COc1ccc(OC)c(NC(=O)CCC/C(CC(=O)c2ccc(O)c(OC)c2)=N\NC(=O)C[N+](C)(C)C)c1	> 100 µM	–
CC1(C)CC(=O)c2c(nc3ccc4ccccc4c3c2-c2ccc(NC(=O)CCCC(=O)Nc3ccc(-c4c5c(nc6ccc7ccccc7c46)CC(C)(C)CC5=O)cc3)cc2)C1	> 100 µM	–
CCCCCCCCCCCCCCCCCC(=O)OCC(COC1OC(COP(=O)(O)O)C(O)C(O)C1O)OC(=O)CCCCCCCCCCCCCCCCC (centres undefined)	14.4 µM	–
CCOC(=O)C1=C(O)C(=O)c2ccsc2C1=O	> 100 µM	–
C=CCOC(=O)/C(=C\c1ccc(OC)c(OC)c1)c1ccc(OC)c(OC)c1	> 100 µM	–
CC12NN=NC1C(=O)NC2=O (centres undefined)	> 100 µM	–
CCOC(=O)C(C)(c1cn(C)c2ccccc12)c1cn(C)c2ccccc12	> 100 µM	–
CC1=NN(c2ccccc2)C(=O)/C1=C/c1ccc(O)cc1	> 100 µM	–
CCOC(=O)C1=C(NC)OC/C1=N\NC(=O)c1ccccc1O	> 100 µM	–
O=C(N/N=C/c1ccc2c(c1)CCC2)c1ccccc1O	66 µM	–
O[C@H]1CO[C@H]2[C@@H]1OC[C@@H]2Oc1ccc(Nc2ccnc(Nc3ccc(O[C@H]4CO[C@H]5[C@@H]4OC[C@@H]5O)c(Cl)c3)n2)cc1Cl	2.48 µM	1.19 µM
C=C1COC(/C=C(\C)CC/C=C(\C)CCl)C1 (centres undefined)	> 100 µM	–
O=S(=O)(c1ccccc1)C(CN1CCCCC1)S(=O)(=O)c1ccccc1	> 100 µM	–
CCCn1c(C)nc2c1C(=O)c1ccccc1C2=O	69.7 µM	22.3 µM
COC(=O)C(Cc1ccccc1)NC(=O)NC(=O)NC(=O)CI (centres undefined)	47.1 µM	21.2 µM
COC(=O)c1ccc2c(O)c(O)ccc2c1	30.9 µM	–
C/C(=N\Nc1ccc2ccccc2n1)c1ccccn1	6.91 µM	< 0.0498 µM
O=C(NN1C(=O)CSC12CCCCC2)c1[nH]c2ccc(F)cc2c1-c1ccccc1	68.7 µM	26.5 µM
Cc1cc(=O)[nH]c(NN2C(Cl)C(=O)C2c2ccc(Cl)cc2)n1 (centres undefined)	50.6 µM	–
O=C(/C(=C/c1ccc([N+](=O)[O-])cc1)c1ccccc1)c1ccccc1	> 100 µM	3.91 µM
CC1C(c2ccccc2)OP(=O)(OC(C#N)c2ccccc2)N1C (centres undefined)	> 100 µM	–
Nc1ncnc2[nH]ncc12	0.761 µM	0.221 µM

SMILES	TGI	GI50
CCCN(C(=O)c1c(Cl)nnc(Cl)c1C(=O)c1cc(Cl)nnc1Cl)c1cc(Cl)nnc1Cl	27.4 µM	–
CCC1CN2CCc3cc(OC)c(OC)cc3C2CC1CC1c2cc(OC)c(OC)cc2CCN1C(=O)C1CCCN1C(=O)OCc1ccccc1 (centres undefined)	51.4 µM	–
Cc1cc(C)c(C2=NOC(c3ccccc3)(c3cc(=O)n(-c4ccccc4)s3)O2)c(C)c1 (centres undefined)	> 100 µM	–
CCOC(=O)c1c(N2CCCC2)nsc1Nc1ccccc1	> 100 µM	–
Cc1ccc(S(=O)(=O)NCCSCCNS(=O)(=O)c2ccc(C)cc2)cc1	> 100 µM	–
CN(C)CCNc1nc(-c2ccc3ccccc3c2)nc2nc[nH]c12	25.3 µM	–
Cc1ccc(-c2nc3ccc(Cl)cc3[nH]2)cc1	> 100 µM	–
c1ccc(SC(CCCCC(Sc2ccccc2)Sc2ccccc2)Sc2ccccc2)cc1	> 100 µM	–
C=C1CC2OC2(C(=O)O[C@H]2CCC3[C@@H]4CCC5=CC(=O)CC[C@]5(C)C4CC[C@@]32C)C1=O (some centres undefined)	34.2 µM	–
COc1ccc(-c2cc(-c3ccccc3)nc(SCCCC(=O)NO)n2)cc1	7.68 µM	1.42 µM
CCO[C@]12C[C@H](OC)[C@@]3(O)CC(C1[C@H]3OCc1ccccc1)C13C4C2[C@H](OC)C1[C@](COC)(CN4CC)[C@H](O)C[C@@H]3OC (some centres undefined)	> 100 µM	–
Cc1ccccc1N=Nc1ccc(N=Nc2c(O)ccc3ccccc23)c(C)c1	> 100 µM	–
Cc1cc2c(C)n(Cc3ccc(Cl)cc3Cl)nc2c(C#N)c1C	> 100 µM	–
O=c1oc2ccccc2cc1/C=N/N1C(=S)N(c2ccccc2)C(=Nc2ccccc2)C1=Nc1ccccc1	> 100 µM	–
[N-]=[N+]=Nc1c(-c2ccccc2)c(Cl)nc2ccccc12	> 100 µM	–
COC(=O)Cn1c2c(c3c(O)cccc31)C(=O)c1ccccc1-2	> 100 µM	> 100 µM
CNC(=O)OCc1c(COC(=O)NC)c(C)n(-c2ccc(Br)cc2)c1C	57 µM	–
COc1ccc(NC(=O)/C(=N\NC(=O)C[n+]2ccccc2)c2c(O)c3ccc(O)cc3oc2=O)c([N+](=O)[O-])c1	> 100 µM	–
COc1ccc(C2CC(c3cc(OC)c(OC)c(OC)c3)=NN2C(C)=O)cc1OCC(=O)Nc1nc2ccc(C(F)(F)F)cc2s1 (centres undefined)	> 100 µM	3.67 µM
COc1ccc(NC2Oc3cc4c(cc3C(c3cccc(OC)c3OC)C2C)OCO4)cc1 (centres undefined)	> 100 µM	–
CCC(NC(C)c1ccccc1)C(O)c1ccc(OCc2ccccc2)c(OCc2ccccc2)c1 (centres undefined)	27.9 µM	–
Cn1cnc2nc(Cl)nc(NC(C)(C)C(C)(C)O)c21	> 100 µM	–
CCCCCCc1cc(C(=O)Nc2cccc(C(F)(F)F)c2)nc(N)n1	> 100 µM	–
O=[N+]([O-])c1cccc(-c2nc3sccn3c2-c2ccnc(NCCCNS(=O)(=O)c3cccc(F)c3)n2)c1	28.3 µM	3.99 µM
CC1CC[C@@H](C(C)C)[C@H](Oc2nnc(C3OC(CO)C(O)C3O)o2)C1 (some centres undefined)	> 100 µM	–

SMILES	TGI	GI50
COc1cc(OC)c(OC)cc1/C=N/N=C(\N)NO	> 100 µM	–
CCOC(=O)C(=O)Nc1c(CC)cccc1C(C)C	> 100 µM	–
Cc1ccc(-c2cc(-c3ccc(C)cc3)nc(NCCNc3ccnc4cc(Cl)ccc34)n2)cc1	3.01 µM	1.54 µM
O=C1C2CC=CCC2C(=O)N1n1c(-c2ccccc2)n[nH]c1=O (centres undefined)	> 100 µM	–
O=C(Cn1c2c(c3ccccc31)CCCC2)NC1CCCCC1	> 100 µM	–
Cc1c(/C=N/NC(=S)Nc2ccccc2Cl)c(=O)n(-c2ccccc2)n1C	> 100 µM	–
C#CCOCC12C=CC(O1)C1C(=O)N(C)C(=O)C12 (centres undefined)	> 100 µM	–
CN(C)CCNC(=O)c1cccc2c(NCC(=O)O)c3ccccc3nc12	73.5 µM	–
COc1ccccc1NC(=O)/C(Cc1nc2ccc([N+](=O)[O-])cc2[nH]c1=O)=N\NC(=O)C[N+](C)(C)C	> 100 µM	–
Cc1ccc(C2=NOC3=c4ccccc4=CSC3=C2c2ccc([N+](=O)[O-])cc2)cc1	> 100 µM	31.1 µM
O=C1OC(CCCl)(c2ccccc2)CC1CN1CCOCC1 (centres undefined)	> 100 µM	–
CC(C)[C@@H]1NC(=O)[C@H]2N=C(O[C@@H]2C)[C@@H]2CCCN2C(=O)[C@H](Cc2ccccc2)NC(=O)[C@@H]2CSC(=N2)[C@@H](Cc2ccccc2)NC(=O)[C@@H]2CSC1=N2	> 50 µM	–
CC(=O)C1=CSC2[C@H](NC(=O)Cc3ccccc3)C(=O)N2C1C(=O)OC(c1ccccc1)c1ccccc1 (some centres undefined)	> 100 µM	–
O=C(/C(=C/c1ccccc1)CN1CCCCC1)c1ccccc1	11.5 µM	3.65 µM
Cc1ccc(C(=O)Nc2cccc(C(F)(F)F)c2)cc1Nc1nc(-c2cccnc2)nc2c1cnn2C	23.9 µM and > 10 µM	3.95 µM and 2.38 µM
CC1(C)CS(=O)(=O)CC(C)(C)C(=N/N)/C1=N\N	> 100 µM	–
CCN(C(=O)N1CCN(c2cc3c(cc2F)c(=O)c(C(=O)O)cn3C2CC2)CC1)c1nc(-c2ccc(C)cc2)cs1	> 100 µM	0.421 µM
O=C1c2c(c3c4ccccc4[nH]c3c3ccc4ccccc4c23)C(=O)N1CCN1CCCCC1	> 100 µM	1.47 µM
O=c1cc(-c2cccc(Cl)c2)[nH]c2ncccc12	54.8 µM	–
N=C(N)c1ccc(N2CCCN(c3ccc(C(=N)N)cc3)CC2)cc1	> 100 µM	> 100 µM
COc1ccc(-c2c3c(nc4nc(SCCc5ccccc5)nc(N)c24)CCCC3)cc1OC	> 100 µM	–
O=C(NCCCCCCCCNC(=O)c1cc(-c2ccccc2)nc2ccccc12)c1cc(-c2ccccc2)nc2ccccc12	> 100 µM	–
COc1cccc(NC(=O)c2sc3nc4c(cc3c2N)CN(Cc2ccccc2)CC4)c1	> 100 µM	25.2 µM
CC1=C(CCC(C)N(C)Cc2ccc(OCCCN3CCCC3)cc2)C(C)(C)CCC1 (centres undefined)	20 µM	5.7 µM
O=c1oc2ccccc2c2c(=O)c3ccc(OC/C(=N/O)c4ccc(Cl)cc4)cc3oc12	23 µM	–

SMILES	TGI	GI50
CC12CCC(C(=O)OC1=O)C(C)(C)O2 (centres undefined)	> 100 µM	–
Cn1c2c(cc(S(=O)(=O)c3ccccc3)c1=O)CCc1c-2cnn1-c1ccc(Cl)cc1	5.54 µM	1.57 µM
COC(=O)C1C(OC(=O)c2ccccc2)CC2CCC1N2C(N)=O (centres undefined)	> 100 µM	–
CSc1nc(N)c(NC2OC(CO)C(O)C2O)c(=O)[nH]1 (centres undefined)	> 100 µM	–
CN(/N=C(\C(=O)O)c1ccccc1)C1=NCCCN1	> 100 µM	–
O=S(=O)(NCCNC/C=C/c1ccc(Br)cc1)c1cccc2cnccc12	30.4 µM and 27.6 µM	14.9 µM and 13.4 µM
CC(C)(C)c1ccc(OCCCCCCN2CCNCC2)cc1	28.2 µM	14.2 µM
CC(=O)OC1CCn2nnc(CO[Si](C)(C)C(C)(C)C)c21 (centres undefined)	> 100 µM	–
C/C(=N\Nc1nc2ccccc2s1)c1ncccn1	> 61 µM	–
O=C(NNC1=NCCN1)c1ccco1	> 100 µM	–
Cc1ccc(N2C(=O)C3c4[nH]c5ccccc5c4C4CCC(C(C)(C)C)CC4C3C2=O)cc1 (centres undefined)	29.4 µM	–
CC1(CCC2C=CCC2)CCCNC1=S (centres undefined)	> 10 µM	–
CC(=O)Nc1ccccc1SCCSSCCSc1ccccc1NC(C)=O	> 100 µM	–
COCn1c2ccc(OC(C)=O)cc2c2c(=O)oc(N(C)C)nc21	> 100 µM	–
O=c1ccc2cc(O)c(O)cc2o1	> 100 µM	–
CCOC(=O)c1nc2ccc([N+](=O)[O-])cc2c2c1CCO2	> 100 µM	–
COc1cc2c(c(OC)c1OC)C(=O)[C@H](O)[C@H]2NC(N)=O	> 100 µM	–
CCN1CCC(CCOC)(CN2c3ccccc3Sc3ccc(Cl)cc32)C1 (centres undefined)	5.5 µM	2.38 µM
N#Cc1c(N/N=C/c2c(Cl)cccc2Cl)nc(N)nc1N1CCOCC1	> 100 µM	56.8 µM
O=[N+]([O-])/C=C1\COCc2cc3c(cc21)OCO3	> 100 µM	–
Nn1c(-c2ccccc2Cl)nc2ccccc2c1=O	> 100 µM	–
CCOC1(COP(=O)(OCc2ccccc2)OCc2ccccc2)COC(COP(=O)(OCc2ccccc2)OCc2ccccc2)(OCC)CO1 (centres undefined)	> 100 µM	–
COc1cccc(/C=C2/Sc3scc(-c4ccccc4)[n+]3C2=O)c1O	> 100 µM	–
